# Results: PMC4336329 (PLoS ONE, 2015)
# Out of some 310,000 compounds screened, about 14,000 (4.5%) showed an effect of 50% or more. Effects have a minus sign here. This is one part of the list.
# Target: human ether-à-go-go-related gene (hERG) potassium channel (human, UniProt Q12809)
# Test: primary screen, population patch clamp on CHO cells stably expressing hERG
# 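Further: peak tail current of the secondary pulse compared with the same well before compound.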
# Sequence of human ether-à-go-go-related gene (hERG) potassium channel (Q12809 whole entry, looked up): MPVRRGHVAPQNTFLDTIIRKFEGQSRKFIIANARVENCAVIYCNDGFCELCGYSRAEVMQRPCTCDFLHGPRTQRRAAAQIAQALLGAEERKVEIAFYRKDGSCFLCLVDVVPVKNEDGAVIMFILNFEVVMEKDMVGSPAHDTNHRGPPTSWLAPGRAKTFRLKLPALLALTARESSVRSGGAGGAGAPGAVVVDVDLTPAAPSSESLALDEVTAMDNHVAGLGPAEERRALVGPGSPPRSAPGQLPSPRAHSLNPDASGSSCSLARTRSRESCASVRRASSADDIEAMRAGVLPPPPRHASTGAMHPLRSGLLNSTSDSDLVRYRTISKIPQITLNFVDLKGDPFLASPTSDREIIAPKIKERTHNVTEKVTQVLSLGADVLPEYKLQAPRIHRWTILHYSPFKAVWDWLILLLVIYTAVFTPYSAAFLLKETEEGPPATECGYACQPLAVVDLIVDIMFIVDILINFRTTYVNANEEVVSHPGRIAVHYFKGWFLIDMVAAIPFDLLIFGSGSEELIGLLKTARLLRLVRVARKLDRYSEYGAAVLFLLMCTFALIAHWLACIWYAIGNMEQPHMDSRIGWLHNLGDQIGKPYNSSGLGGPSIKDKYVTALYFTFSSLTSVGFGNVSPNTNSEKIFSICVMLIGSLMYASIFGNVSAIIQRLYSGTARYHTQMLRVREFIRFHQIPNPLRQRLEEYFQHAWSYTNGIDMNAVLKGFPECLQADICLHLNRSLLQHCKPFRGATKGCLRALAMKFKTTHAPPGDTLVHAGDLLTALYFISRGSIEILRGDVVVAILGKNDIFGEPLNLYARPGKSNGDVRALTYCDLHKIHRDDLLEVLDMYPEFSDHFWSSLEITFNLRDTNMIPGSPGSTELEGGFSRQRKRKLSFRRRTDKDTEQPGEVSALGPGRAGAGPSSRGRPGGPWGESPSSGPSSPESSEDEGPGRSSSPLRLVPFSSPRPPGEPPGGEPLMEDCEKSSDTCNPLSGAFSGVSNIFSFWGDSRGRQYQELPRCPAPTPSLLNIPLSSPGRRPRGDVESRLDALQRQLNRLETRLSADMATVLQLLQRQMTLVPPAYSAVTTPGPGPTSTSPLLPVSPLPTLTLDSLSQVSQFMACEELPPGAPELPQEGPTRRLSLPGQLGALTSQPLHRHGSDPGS
row,SMILES,"hERG current change (%, negative = inhibition) at 10uM [%]"
1,CC(C)(C)OC(=O)N1CCOCCOCCNCCOCCOCC1,6.98
2,CC(C)c1ccc(/C=C/C(=O)NCCCc2ccccc2)cc1,-0.832
3,CCn1cnc2c1c(=O)n(CC(=O)NCc1ccccc1)c(=O)n2Cc1ccccc1,0.683
4,COc1ccc(/C=C2\SC(=S)N(CCC(=O)NC3CCCC3)C2=O)cc1OC,1.5
5,Cc1cccc(N2CCN(S(=O)(=O)c3cc(-c4cc(C)no4)ccc3C)CC2C)c1 (stereo not drawn),18.9
6,CN(C)C(CNC(=O)c1ccc(S(=O)(=O)Nc2ccccc2F)cc1)c1ccco1 (stereo not drawn),-15
7,COc1ccc(C2N=C(N)N=C(N)N2c2ccccc2)cc1OC.Cl (stereo not drawn),-1.46
8,COCCn1c(-c2ccccc2)nc2oc3cc(OC)ccc3c(=O)c2c1=O,-2.27
9,Cc1onc(-c2ccccc2)c1C(=O)Nc1ccc(S(=O)(=O)Nc2nccs2)cc1,9.28
10,CN(CC(=O)Nc1cccc(F)c1)C(=O)c1cccnc1Sc1ccc(Cl)cc1,-7.82
11,CC(C)CN(CC(C)C)S(=O)(=O)N1CCC(C(=O)NC2CCCCCCC2)CC1,0.658
12,O=C(NCc1ccc2c(c1)OCO2)c1ccc(Br)s1,6.32
13,CCOC(=O)CN/C=C(\C#N)c1ccc(F)cc1,43.2
14,O=C(CN1CCCC1)Nc1c(Cl)cccc1Cl,19.9
15,COC(=O)CN(c1ccc(C)cc1)S(=O)(=O)c1ccc2c(c1)n(C)c(=O)c(=O)n2C,-12.4
16,COc1ccc(C(F)(F)F)cc1NC(=O)c1nc2nc(C)cc(C(F)F)n2n1,6
17,O=C(CCCN1C(=O)c2cccc3cccc(c23)C1=O)NCc1cccnc1,0.34
18,Cc1cc(Cl)ccc1OCC(=O)Nc1ccccc1C(=O)N1CCOCC1,-6.01
19,Cc1cc(CNC(=O)COC(=O)Cn2[nH]c(=O)c3ccccc3c2=O)cc(C)c1O,27.3
20,COc1ccc(C(=O)NC(C(=O)NCCc2ccc3c(c2)OCCO3)C(C)C)cc1 (stereo not drawn),8.77
21,O=S(=O)(Cc1ccccc1Cl)N1CCN(Cc2ccc3c(c2)OCO3)CC1,-29.4
22,CC1CCCN(C(=O)CCNS(=O)(=O)c2ccc3c(c2)oc(=O)n3C)C1 (stereo not drawn),11.5
23,COc1cc(OC)cc(C(=O)N2CCN(C(=O)c3cccs3)CC2)c1,3.72

row,SMILES,"hERG current change (%, negative = inhibition) at 10uM [%]"
1,Cc1cccnc1NC(=O)Nc1cccs1,12.4
2,NNC(=O)c1cc2c(s1)CCCCCC2,13
3,CCOc1cc(/C=C/c2ccc3cccc([N+](=O)[O-])c3n2)ccc1O,-17.8
4,CN(C)CCCN1C(=O)c2cc3ccccc3cc2C1=O,-16
5,N#C/C(=N\Nc1cccc2ccccc12)c1nnc2n1CCCCC2,1.66
6,COc1cccc(NC(=O)CCSc2ccc(C)cc2)c1,-3.22
7,COc1cccc(NC(=O)C2CCCN2C(=O)OCc2ccccc2)c1 (stereo not drawn),-9.77
8,CCC(C)NC(=O)C1CCN(S(=O)(=O)c2ccc3nc4c(c(C(=O)O)c3c2)CCCCC4)CC1 (stereo not drawn),11.2
9,CC(NCc1ccccc1O)c1ccccc1 (stereo not drawn),6.03
10,COc1ccc2oc(=O)c(C(=O)NCC3CCCO3)cc2c1 (stereo not drawn),3.67
11,Cc1occc1-c1nnc(SCC(=O)Nc2ccccc2N2CCCCC2)n1C,-38
12,Clc1ccc(CN2CCSCC2)c(Cl)c1,12
13,COc1ccc(C(=O)/C=C2\NCCc3cc(OC)c(OC)cc32)cc1OC,11.6
14,COC(=O)c1ccc(NC(=O)CCCCCn2nnc3ccccc3c2=O)cc1,11.7
15,COc1ccc(CN(Cc2ccncc2)C(=O)CCC(=O)O)cc1,0.89
16,CC(=O)Oc1ccc(C(=O)Nc2cccc(C(=O)Nc3ccccc3C(=O)O)c2)cc1,21.5
17,COCCCNC(=O)CN(Cc1ccc(Cl)cc1)S(C)(=O)=O,10.1
18,CCc1nnc(SCCSc2nnc(CC)n2N)n1N,13.9
19,COCC(=O)N(CCc1ccccc1)Cc1cc2cc(C)ccc2nc1Cl,-13.6
20,CCN(CC)S(=O)(=O)c1cc([N+](=O)[O-])ccc1N=Nc1c(O)n(C)c2ccccc12,3.43
21,CCOc1ccc(C(CC(=O)O)NC(=O)CCCOc2ccc(Cl)cc2C)cc1 (stereo not drawn),5.77
22,O=C(Cc1ccc(O)cc1)N/N=C/c1cccnc1,10.2
23,Cc1ccccc1Nc1nnc(-c2ccc(C(=O)NCCO)cc2)c2ccccc12,-65.9

row,SMILES,"hERG current change (%, negative = inhibition) at 10uM [%]"
1,COCCN1CC(C(=O)NCc2ccccc2-n2ccnc2C)CCC1=O (stereo not drawn),1.14
2,CCN(CC(=O)Nc1cccc(C(C)=O)c1)S(=O)(=O)c1ccc(C)cc1,-15.3
3,Cc1cc(C(=O)NNC(=O)NC(C)C)no1,15.3
4,O=C(CC12CC3CC(CC(Br)(C3)C1)C2)Nc1cccc(S(=O)(=O)NC2=NCCC2)c1,-4.79
5,COc1cccc(NCc2cc(=O)oc3cc(C)c(O)cc23)c1,0.283
6,O=C(O)c1c(-c2ccccc2)c(-c2ccccc2)nc2ccccc12,15.2
7,C=CCNC(=O)c1cc(Cl)cc(Cl)c1,0.623
8,COC(=O)c1ccc(N2CCN(C)CC2)c(NC(=O)c2cc3ccccc3o2)c1,-6.95
9,COc1ccc(Cl)cc1C(=O)N1CCN(c2ccccn2)CC1,-3.86
10,CC(=O)c1cnc2sccn2c1=O,-28
11,Cc1cccc(N2C(=O)C(O)=C(C(=O)c3cccs3)C2c2cccc(Oc3ccccc3)c2)n1 (stereo not drawn),2.99
12,COc1ccc(Nc2cc(C)c3c(O)cccc3n2)cc1,-23.6
13,Clc1ccc(SCCOCCN2CCOCC2)cc1.O=C(O)C(=O)O,1.54
14,CCCNS(=O)(=O)c1ccc2c(c1)n(C)c(=O)n2C,17.1
15,Clc1ccc(N2CCN(Cc3ccccc3Cl)CC2)cc1,14.8
16,O=C(C[n+]1cccc2ccccc21)c1ccccc1.[Br-],-1.84
17,CCOC(=O)C1=C(O)C(Nc2nccs2)(C(F)(F)F)N=C1C (stereo not drawn),3.61
18,c1ccc(CSc2nnc(-c3c[nH]c4ccccc34)o2)cc1,4.23
19,COc1ccc(C2CC(c3ccc(Br)cc3)=NN2C(=S)Nc2ccccc2)cc1 (stereo not drawn),12.4
20,CCOC(=O)C1=C(C)C/C(=N\NC(=O)c2ccccc2O)CC1,8.16
21,O=C(Nc1ccc2[nH]c(=O)[nH]c2c1)c1ccc([N+](=O)[O-])o1,4.06
22,Cc1c(C)c2cc3c(C)coc3cc2oc1=O,10.5
23,Cc1ccc(-c2ccc(S(=O)(=O)NCc3ccco3)cc2)cc1,35

row,SMILES,"hERG current change (%, negative = inhibition) at 10uM [%]"
1,CCC(=O)Nc1ccc2ccccc2c1,1.88
2,CC1Sc2ccc(S(=O)(=O)CCC(=O)N(C)Cc3ccccc3)cc2NC1=O (stereo not drawn),-0.757
3,CCOc1ccc(/C=N/NC(=O)c2csc(C)c2C)c(OCC)c1,6.43
4,CCc1ccccc1NC(=O)c1ccc2c(c1)CCN2S(C)(=O)=O,12.7
5,O=[N+]([O-])c1cccc(-c2nnc3cccc(Cl)n23)c1,-0.313
6,COc1cc(/C=N\n2cnnc2)ccc1OCC(=O)Nc1ccc(C)cc1,-3.44
7,O=C(c1cc(-c2cccnc2)nc2ccccc12)N1CCN(S(=O)(=O)c2cccs2)CC1,-64.3
8,Cn1nc(C(=O)OCc2ccc(F)cc2)c2ccccc2c1=O,3.57
9,CN(C)/C=C(/C#N)C(=O)c1cccc(Oc2ccc(C(C)(C)C)cc2)c1,-16.2
10,COc1ccc(S(=O)(=O)N(C)C)cc1NC(=O)COC(=O)c1nc2nccc(C)n2n1,9.68
11,Cc1c(CCC(=O)N[C@@H](CCCNC(N)=O)C(=O)O)c(=O)oc2cc3oc4c(c3cc12)CCCC4,16
12,O=[N+]([O-])c1ccc(N=Nc2c(O)[nH]c3ccc(F)cc23)cc1,0.959
13,COc1ccc(OC)c(NC(=O)N2CCc3ccccc3C2)c1,-5.69
14,CCc1cc(-c2ccc3c(c2)COc2c4ccccc4nn2-3)on1,1.57
15,O=C(COc1ccc2c(c1)OCO2)Nc1ccc(Cl)cn1,-3.44
16,C[n+]1c2n(c3ccccc31)N=C(c1ccc(Br)cc1)CS2.[Br-],-69.5
17,NC(=S)NN=C1c2ccccc2-c2ccccc21,18.5
18,COc1ccc(/C=C2\NC(=S)N(CC3CCCO3)C2=O)c(OC)c1 (stereo not drawn),-3.39
19,O=C(NCC1CCOCC1)c1ccc(OC2CCN(Cc3ccccn3)CC2)cc1,7.86
20,Cc1ccc(OCCC(=O)OCC(=O)Nc2ccc3c(c2)OCCO3)cc1,-10.3
21,COc1ccc(C)cc1S(=O)(=O)N1CCN(c2ccccc2)CC1,-5.8
